Some of the results follow. The full chains were built here from the parent and the listed change. Inactive controls read about 0.05.
B1: TEV protease; numbered along this chain (parent)
chain: MGESLFKGPRDYNPISSSICHLTNESDGHTTSLYGIGFGPFIITNKHLFRRNNGTLVVQSLHGVFKVKDTTTLQQHLVDGRDMIIIRMPKDFPPFPQKLKFREPQREERICLVTTNFQTKSMSSMVSDTSCTFPSGDGIFWKHWIQTKDGQCGSPLVSTRDGFIVGIHSASNFTNTNNYFTSVPKNFMELLTNQEAQQWVSGWRLNADSVLWGGHKVFMVKPEEPFQPVKEATQL

Variants of: B1
Experiment: raw area under fraction-flipped curve 0-4 h after induction (AUC4h, not background-subtracted), DNA-recorder readout of cleavage of the substrate (dimensionless); higher = more cleavage of the substrate by the protease variant
Conditions: temperature: 34 °C; time window: 0-4 h after rhamnose induction
Procedure: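 In vivo DNA recorder in E. coli TOP10(DE3) ΔrhaA at 34 °C. Each TEVp single-site mutant (parent TEVp 0) is paired with a single-site variant of the 7-mer TEVs (canonical ENLYFQ|S). The substrate sits between flexible linkers in a Bxb1-sfGFP-TEVs-SsrA fusion, so cleavage stabilises Bxb1 and speeds flipping of a recombination array, read by NGS. The value is the raw area under the fraction-flipped curve over 0-4 h after rhamnose induction (AUC4h), with ≥20 reads per time point. It is not background-subtracted; inactive controls average about 0.047.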
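Also: Bxb1 expression induced with 0.2% (w/v) L-rhamnose at OD600 near 0.5, cultures sampled hourly, flipped fraction per protease–substrate barcode pair counted by paired-end Illumina sequencing.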

Row | Variant | area with substrate ENCYFQS | area with substrate ENDYFQS | area with substrate ENQYFQS | area with substrate ENVYFQS | area with substrate ENEYFQS | area with substrate ENHYFQS | area with substrate ENIYFQS | area with substrate ENPYFQS | area with substrate ENRYFQS | area with substrate ENSYFQS
1 | MGESLFKGPRDYNPISSSICHLTNESDGHTTSLYGIGFGPFIITNKHLFRRNNGTLVVQSLHGVFKVKDTTTLQQHLVDGRDMIIIRMPKDFPPFPQKLKFREPQREERICLVTTNFQTKSMSSMVSDTSETFPSGDGIFWKHWIQTKDGQCGSPLVSTRDGFIVGIHSASNFTNTNNYFTSVPKNFMELLTNQEAQQWVSGWRLNADSVLWGGHKVFMVKPEEPFQPVKEATQL [C131E] | 0.0785 | 0.0709 | 0.0627 | 0.0696 | – | – | – | – | – | –
2 | MGESLFKGPRDYNPISSSICHLTNESDGHTTSLYGIGFGPFIITNKHLFRRNNGTLVVQSLHGVFKVKDTTTLQQHLVDGRDMIIIRMPKDFPPFPQKLKFREPQREERICLVTTNFQTKSMSSMVSDTSCTFPSGDYIFWKHWIQTKDGQCGSPLVSTRDGFIVGIHSASNFTNTNNYFTSVPKNFMELLTNQEAQQWVSGWRLNADSVLWGGHKVFMVKPEEPFQPVKEATQL [G138Y] | 0.047 | 0.075 | 0.0855 | – | 0.0635 | 0.0559 | 0.0945 | 0.0592 | 0.0582 | 0.0606
3 | MGESLFKGPRDYNPISSSICHLTNESDGHTTSLYGIGFGPFIITNKHLFRRNNGTLVVQSLHGVFKVKDTTTLQQHLVDGRDMIIIRMPKDFPPFPQKLKFREPQREERICLVTTNFQTKSMSSWVSDTSCTFPSGDGIFWKHWIQTKDGQCGSPLVSTRDGFIVGIHSASNFTNTNNYFTSVPKNFMELLTNQEAQQWVSGWRLNADSVLWGGHKVFMVKPEEPFQPVKEATQL [M125W] | 0.0573 | 0.0555 | 0.0454 | – | – | 0.053 | – | – | – | 0.0524
4 | MGESLFKGPRDYNPISSSICHLTNESDGHTTSLYGIGFGPFIITNKHLFRRNNGTLVVQSLHGVFKVKDTTTLQQHLVDGRDMIIIRMPKDFPPFPQKLKFREPQREERICLVTTNFQTKSMSSYVSDTSCTFPSGDGIFWKHWIQTKDGQCGSPLVSTRDGFIVGIHSASNFTNTNNYFTSVPKNFMELLTNQEAQQWVSGWRLNADSVLWGGHKVFMVKPEEPFQPVKEATQL [M125Y] | 0.0623 | – | – | – | – | – | – | – | – | 0.0498
5 | MGESLFKGPRDYNPISSSICHLTNESDGHTTSLYGIGFGPFIITNKHLFRRNNGTLVVQSLHGVFKVKDTTTLQQHLVDGRDMIIIRMPKDFPPFPQKLKFREPQREERICLVTTNFQTKSMSSMVSDTSCTFPSGDGIFWNHWIQTKDGQCGSPLVSTRDGFIVGIHSASNFTNTNNYFTSVPKNFMELLTNQEAQQWVSGWRLNADSVLWGGHKVFMVKPEEPFQPVKEATQL [K142N] | 0.0651 | 0.0475 | 0.0691 | – | 0.0652 | 0.0989 | – | – | – | –
6 | MGESLFKGPRDYNPISSSICHLTNESDGHTTSLYGIGFGPFIITNKHLFRRNNGTLVVQSLHGVFKVKDTTTLQQHLVDGRDMIIIRMPKDFPPFPQKLKFREPQREERICLVTTNFQTKSMSSMVSDTSCTFPSGHGIFWKHWIQTKDGQCGSPLVSTRDGFIVGIHSASNFTNTNNYFTSVPKNFMELLTNQEAQQWVSGWRLNADSVLWGGHKVFMVKPEEPFQPVKEATQL [D137H] | 0.0657 | 0.0645 | 0.0737 | – | 0.0475 | – | – | – | – | 0.0315
7 | MGESLFKGPRDYNPISSSICHLTNESDGHTTSLYGIGFGPFIITNKHLFRRNNGTLVVQSLHGVFKVKDTTTLQQHLVDGRDMIIIRMPKDFPPFPQKLKFREPQREERICLVTTNFQTKSMSSMVSDTSCTFPSGAGIFWKHWIQTKDGQCGSPLVSTRDGFIVGIHSASNFTNTNNYFTSVPKNFMELLTNQEAQQWVSGWRLNADSVLWGGHKVFMVKPEEPFQPVKEATQL [D137A] | 0.0571 | – | 0.0598 | – | 0.0618 | 0.0301 | – | 0.108 | – | 0.0778
8 | MGESLFKGPRDYNPISSSICHLTNESDGHTTSLYGIGFGPFIITNKHLFRRNNGTLVVQSLHGVFKVKDTTTLQQHLVDGRDMIIIRMPKDFPPFPQKLKFREPQREERICLVTTNFQTKSMSSMVSDTSCKFPSGDGIFWKHWIQTKDGQCGSPLVSTRDGFIVGIHSASNFTNTNNYFTSVPKNFMELLTNQEAQQWVSGWRLNADSVLWGGHKVFMVKPEEPFQPVKEATQL [T132K] | 0.036 | – | – | – | – | – | – | – | – | –
9 | MGESLFKGPRDYNPISSSICHLTNESDGHTTSLYGIGFGPFIITNKHLFRRNNGTLVVQSLHGVFKVKDTTTLQQHLVDGRDMIIIRMPKDFPPFPQKLKFREPQREERICLVTTNFQTKSMSSMVSDTSCTFPSGDGIFWKHWNQTKDGQCGSPLVSTRDGFIVGIHSASNFTNTNNYFTSVPKNFMELLTNQEAQQWVSGWRLNADSVLWGGHKVFMVKPEEPFQPVKEATQL [I145N] | 0.0531 | – | 0.0469 | – | 0.0606 | 0.0455 | – | – | – | 0.11
10 | MGESLFKGPRDYNPISSSICHLTNESDGHTTSLYGIGFGPFIITNKHLFRRNNGTLVVQSLHGVFKVKDTTTLQQHLVDGRDMIIIRMPKDFPPFPQKLKFREPQREERICLVTTNFQTKSMSSMVSDTSCTFPSGDGIFWKHWGQTKDGQCGSPLVSTRDGFIVGIHSASNFTNTNNYFTSVPKNFMELLTNQEAQQWVSGWRLNADSVLWGGHKVFMVKPEEPFQPVKEATQL [I145G] | 0.065 | 0.0458 | 0.0518 | – | – | – | – | – | – | 0.0502
11 | MGESLFKGPRDYNPISSSICHLTNESDGHTTSLYGIGFGPFIITNKHLFRRNNGTLVVQSLHGVFKVKDTTTLQQHLVDGRDMIIIRMPKDFPPFPQKLKFREPQREERICLVTTNFQTKSMSSMVSDTSCTFPSGDGIFWKNWIQTKDGQCGSPLVSTRDGFIVGIHSASNFTNTNNYFTSVPKNFMELLTNQEAQQWVSGWRLNADSVLWGGHKVFMVKPEEPFQPVKEATQL [H143N] | 0.0612 | – | – | – | – | 0.0526 | – | – | – | 0.063

Same assay, conditions: temperature: 34 °C; time window: 0-4 h after rhamnose induction

Row | Variant | area with substrate ENGYFQS | area with substrate ENMYFQS | area with substrate ENNYFQS | area with substrate ENTYFQS | area with substrate ENWYFQS | area with substrate ENYYFQS
12 | MGESLFKGPRDYNPISSSICHLTNESDGHTTSLYGIGFGPFIITNKHLFRRNNGTLVVQSLHGVFKVKDTTTLQQHLVDGRDMIIIRMPKDFPPFPQKLKFREPQREERICLVTTNFQTKSMSSWVSDTSCTFPSGDGIFWKHWIQTKDGQCGSPLVSTRDGFIVGIHSASNFTNTNNYFTSVPKNFMELLTNQEAQQWVSGWRLNADSVLWGGHKVFMVKPEEPFQPVKEATQL [M125W] | 0.0666 | – | – | – | – | –
13 | MGESLFKGPRDYNPISSSICHLTNESDGHTTSLYGIGFGPFIITNKHLFRRNNGTLVVQSLHGVFKVKDTTTLQQHLVDGRDMIIIRMPKDFPPFPQKLKFREPQREERICLVTTNFQTKSMSSYVSDTSCTFPSGDGIFWKHWIQTKDGQCGSPLVSTRDGFIVGIHSASNFTNTNNYFTSVPKNFMELLTNQEAQQWVSGWRLNADSVLWGGHKVFMVKPEEPFQPVKEATQL [M125Y] | 0.0581 | 0.073 | 0.0317 | 0.0712 | – | –
14 | MGESLFKGPRDYNPISSSICHLTNESDGHTTSLYGIGFGPFIITNKHLFRRNNGTLVVQSLHGVFKVKDTTTLQQHLVDGRDMIIIRMPKDFPPFPQKLKFREPQREERICLVTTNFQTKSMSSMVSDTSCTFPSGDGIFWNHWIQTKDGQCGSPLVSTRDGFIVGIHSASNFTNTNNYFTSVPKNFMELLTNQEAQQWVSGWRLNADSVLWGGHKVFMVKPEEPFQPVKEATQL [K142N] | – | – | – | 0.0642 | 0.0249 | –
15 | MGESLFKGPRDYNPISSSICHLTNESDGHTTSLYGIGFGPFIITNKHLFRRNNGTLVVQSLHGVFKVKDTTTLQQHLVDGRDMIIIRMPKDFPPFPQKLKFREPQREERICLVTTNFQTKSMSSMVSDTSCTFPSGHGIFWKHWIQTKDGQCGSPLVSTRDGFIVGIHSASNFTNTNNYFTSVPKNFMELLTNQEAQQWVSGWRLNADSVLWGGHKVFMVKPEEPFQPVKEATQL [D137H] | 0.0541 | – | – | 0.0702 | 0.0565 | –
16 | MGESLFKGPRDYNPISSSICHLTNESDGHTTSLYGIGFGPFIITNKHLFRRNNGTLVVQSLHGVFKVKDTTTLQQHLVDGRDMIIIRMPKDFPPFPQKLKFREPQREERICLVTTNFQTKSMSSMVSDTSCTFPSGAGIFWKHWIQTKDGQCGSPLVSTRDGFIVGIHSASNFTNTNNYFTSVPKNFMELLTNQEAQQWVSGWRLNADSVLWGGHKVFMVKPEEPFQPVKEATQL [D137A] | 0.0708 | – | 0.0739 | 0.0584 | – | –
17 | MGESLFKGPRDYNPISSSICHLTNESDGHTTSLYGIGFGPFIITNKHLFRRNNGTLVVQSLHGVFKVKDTTTLQQHLVDGRDMIIIRMPKDFPPFPQKLKFREPQREERICLVTTNFQTKSMSSMVSDTSCTFPSGDGIFWKHWNQTKDGQCGSPLVSTRDGFIVGIHSASNFTNTNNYFTSVPKNFMELLTNQEAQQWVSGWRLNADSVLWGGHKVFMVKPEEPFQPVKEATQL [I145N] | – | 0.0662 | – | – | – | –
18 | MGESLFKGPRDYNPISSSICHLTNESDGHTTSLYGIGFGPFIITNKHLFRRNNGTLVVQSLHGVFKVKDTTTLQQHLVDGRDMIIIRMPKDFPPFPQKLKFREPQREERICLVTTNFQTKSMSSMVSDTSCTFPSGDGIFWKHWGQTKDGQCGSPLVSTRDGFIVGIHSASNFTNTNNYFTSVPKNFMELLTNQEAQQWVSGWRLNADSVLWGGHKVFMVKPEEPFQPVKEATQL [I145G] | – | – | – | 0.0609 | – | –
19 | MGESLFKGPRDYNPISSSICHLTNESDGHTTSLYGIGFGPFIITNKHLFRRNNGTLVVQSLHGVFKVKDTTTLQQHLVDGRDMIIIRMPKDFPPFPQKLKFREPQREERICLVTTNFQTKSMSSMVSDTSCTFPSGDGIFWKNWIQTKDGQCGSPLVSTRDGFIVGIHSASNFTNTNNYFTSVPKNFMELLTNQEAQQWVSGWRLNADSVLWGGHKVFMVKPEEPFQPVKEATQL [H143N] | – | – | 0.069 | – | – | 0.0395
